Data as given in PubChem BioAssay AID504937 (National Center for Advancing Translational Sciences (NCATS), 2011).
Among all 340,000 compounds or so, about 20 (0.006%) were called active. The inconclusive results got no clear call from the source; some entries with a clear call stand among them for comparison. Calls follow the shape of the dose curve; as a rule, active = well fitted inhibition curve with a large enough effect; inconclusive = small, poorly fitted or top-dose-only effect; inactive = no such curve, though single readings can be large or run the other way. Where the call is inconclusive, the potency comes from a doubtful curve fit.

These compounds were tested against Sphingomyelin phosphodiesterase (Homo sapiens) (UniProt P17405) (assay: Inhibitors of Secretory Acid Sphingomyelinase (S-ASM): qHTS). Details: placental ASM, HMU-PC fluorogenic substrate (series up to 57.5 µM), 60 min.
How it was run: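 Fluorescence read-out (Ex 386 nm, Em 447 nm) after stopping the reaction at pH 10. Enzyme: ASM from human placenta; substrate HMU-PC0, 9 uM final; 60 min, 37 °C. Compound preincubation 10 min, ambient temperature.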
Potency is read from the fitted curve at half-maximal effect; tags tell the direction and shape of the fitted curve.

Sequence of UniProt P17405 (P17405 whole entry, looked up): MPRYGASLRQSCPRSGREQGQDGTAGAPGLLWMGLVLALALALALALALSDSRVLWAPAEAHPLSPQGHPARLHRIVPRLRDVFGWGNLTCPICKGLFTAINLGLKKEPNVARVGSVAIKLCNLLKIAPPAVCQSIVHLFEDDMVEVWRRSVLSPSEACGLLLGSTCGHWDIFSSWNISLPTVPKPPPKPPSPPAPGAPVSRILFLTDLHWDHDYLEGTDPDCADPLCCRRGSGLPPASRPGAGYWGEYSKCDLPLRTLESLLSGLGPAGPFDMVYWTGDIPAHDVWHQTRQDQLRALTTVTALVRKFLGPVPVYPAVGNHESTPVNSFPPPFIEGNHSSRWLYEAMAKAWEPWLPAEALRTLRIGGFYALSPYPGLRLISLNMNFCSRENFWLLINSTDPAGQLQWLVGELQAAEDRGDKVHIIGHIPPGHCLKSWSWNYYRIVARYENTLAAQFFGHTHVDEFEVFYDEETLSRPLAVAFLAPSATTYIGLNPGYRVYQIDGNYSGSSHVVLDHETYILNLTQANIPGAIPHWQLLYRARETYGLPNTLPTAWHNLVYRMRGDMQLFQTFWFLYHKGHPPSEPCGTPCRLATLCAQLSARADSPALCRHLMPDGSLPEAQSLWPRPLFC

SMILES	Potency
C[C@@H]1CC[C@@]2(O[C@@H](CCO)C[C@@H](O)[C@@H]2O)O1	inactive
COc1cnc(-c2ccccc2)nc1Oc1ccc(C(C)(C)C)cc1	inconclusive: 178 µM [inhibitor, partial curve, poor fit]
CCC(=C/c1sc2ccc3ccccc3c2[n+]1C)/C=C1\Sc2ccc3ccccc3c2N1C	inconclusive: 100 µM [inhibitor, partial curve]
CN(C)c1ccc([C@@H]2[C@@H]([N+](=O)[O-])[C@H]3C=Cc4ccccc4N3[C@H]2C(=O)c2ccc(Cl)cc2)cc1	inconclusive: 126 µM [inhibitor, partial curve, poor fit]
CCOc1ccc([C@@H]2CC=C(C(=O)O)[C@H](c3ccc(Cl)cc3)N2S(=O)(=O)c2ccc(C)cc2)cc1	inconclusive: 200 µM [inhibitor, partial curve, poor fit]
CSc1ccc(-c2cccc([N+](=O)[O-])c2)nn1	inactive
CC(C)N(C(=O)[C@H]1C[C@H](CC(=O)NCc2cccc(C(F)(F)F)c2)C(=O)N2CCc3c([nH]c4ccc(Cl)cc34)[C@]12C)C(C)C	inconclusive: 398 µM [inhibitor, partial curve, poor fit]
CCc1nc2ccc(C(=O)N3CCN(c4ccc(Cl)cc4)CC3)cc2nc1CC	inconclusive: 100 µM [inhibitor, single point]
Cc1ccc(N=N/C(=C\O)C(=O)c2ccc(Cl)cc2)cc1	inconclusive: 1260 µM [inhibitor, partial curve, poor fit]
CC(C)CNc1cc(N2CCCC2)ccc1[N+](=O)[O-]	inconclusive: 89.1 µM [inhibitor, single point]
COc1cc(OC)c(CN2CCC(CO)(CCOc3ccccc3)CC2)c(OC)c1	inactive
O=C(O)CCN1C(=O)/C(=C\c2cccc(OCC(=O)Nc3ccc(Cl)cc3)c2)SC1=S	inconclusive: 50.1 µM [inhibitor, partial curve]
NC(=NCCCCCCN=C(N)/N=C(\N)Nc1ccc(Cl)cc1)/N=C(\N)Nc1ccc(Cl)cc1	inconclusive: 89.1 µM [inhibitor, partial curve, poor fit]
Cc1ccc(N(CC(=O)NCc2ccco2)C(=O)CCC(=O)Nc2nccs2)cc1	inactive
CCN(CC)c1ccc(/C=C2\CCC(/C=N/NC(=O)c3ccc(=O)n(C)c3)=C2N2CCOCC2)cc1	inactive
COc1ccc(-c2n[nH]c(C)c2-c2cnn(-c3ccccc3)c2)c(O)c1	inconclusive: 100 µM [inhibitor, partial curve, poor fit]
O=[N+]([O-])c1cc(S(=O)(=O)NC2=NCCCCC2)ccc1NCC1CCCCC1	inconclusive: 398 µM [inhibitor, partial curve, poor fit]
COc1ccc(N=Cc2sc(O)c3ccccc23)cc1	inconclusive: 79.4 µM [inhibitor, single point]
COc1ccc(NS(=O)(=O)c2ccc(N/N=C(\C)c3ccncc3)c([N+](=O)[O-])c2)cc1	inconclusive: 112 µM [inhibitor, single point]
CCO[C@H]1OC(C(=O)Nc2ccccc2)=C[C@@H](c2ccc(Br)cc2)[C@@H]1CCCO	inconclusive: 178 µM [inhibitor, partial curve, poor fit]
CCCSc1nc(O)c(C(c2ccc(OC)c(O)c2)c2c(O)nc(SCCC)n(C)c2=O)c(=O)n1C	inactive

SMILES	Potency
CC1CCCCC12NC(=O)N(CC(=O)Nc1ccc(OC(F)F)cc1)C2=O (stereo not drawn)	inactive
CCOC(=O)c1[nH]c(C)c(C(=O)Nc2ccc(C)cc2C)c1C	inactive
CCCN(Cc1nnc(-c2ccccc2Cl)o1)C(=O)c1cc(S(=O)(=O)N2CCOCC2)ccc1F	inactive
CC(C)(C)NC(=O)C[C@H]1C[C@H](C(=O)N2CCCCC2)[C@@]2(CCc3ccccc3)c3[nH]c4cc(-c5ccco5)ccc4c3CCN2C1=O	inconclusive: 15.8 µM [inhibitor, single point]
COc1ccccc1CCCNC(=O)C1CCC(=O)N(CCc2ccc(Cl)cc2)C1 (stereo not drawn)	inactive
Cc1cc(C)c(NC(=O)Nc2ccccc2C)c(Cl)c1	inactive
CCCCCc1ccc(OCCCC[n+]2ccccc2)c(CCCCC)c1	inconclusive: 251 µM [inhibitor, partial curve, poor fit]
Cc1cccc2sc(NC(=O)C3CC3)nc12	inactive
Cc1cccc(N2C(=O)CC(N3CCN(c4ccc(Cl)cc4)CC3)C2=O)c1 (stereo not drawn)	inconclusive: 355 µM [inhibitor, partial curve, poor fit]
CCN1C(=O)[C@H]2[C@@H](c3ccc(-c4ccc(OC)cc4)cc3)N3CCCC[C@@]3(C(=O)OC)[C@H]2C1=O	inconclusive: 126 µM [inhibitor, partial curve, poor fit]
CCn1c2c(c3cc(OCC(C)C)ccc31)CCCC2=O	inactive
CCC(=O)Nc1ccc(-c2nnc(SCc3ccc(C(=O)Nc4nccs4)cc3)n2CC)cc1	inconclusive: 25.1 µM [inhibitor, partial curve, poor fit]
Cc1cccc2cc3c(N)c(C(=O)Nc4ccc(N5CCOCC5)cc4)sc3nc12	inconclusive: 89.1 µM [inhibitor, partial curve, poor fit]
COc1ccc(NC(=O)c2ccc(F)cc2)cc1S(=O)(=O)Nc1cc(C)ccc1Br	inconclusive: 126 µM [inhibitor, partial curve, poor fit]
Cc1cc(Cc2ccc(N)c(C)c2)ccc1N	inactive
O=C1C=C(N2CCCCC2)c2ccccc2C1=O	inactive
CCC(Oc1ccccc1OC)C(=O)N1CC(=O)Nc2ccccc21 (stereo not drawn)	inconclusive: 251 µM [inhibitor, partial curve, poor fit]
C1=C(c2sc3ccccc3c2-c2ccc(OCCN3CCOCC3)cc2)CCCC1	inconclusive: 100 µM [inhibitor, single point]
CCOC(=O)c1nsnc1NCCSC(=N)N	inactive
CC1CN(c2ccc([N+](=O)[O-])c(NCCOc3ccc(Cl)cc3)c2)CC(C)N1 (stereo not drawn)	inconclusive: 79.4 µM [inhibitor, partial curve]
CC(=O)NC(=S)Nc1ccc(S(=O)(=O)N(C)Cc2ccccc2)cc1	inactive

SMILES	Potency
CCOC(=O)/C(N=Nc1ccc2c(c1)OCO2)=C(\C)O	inconclusive: 1120 µM [inhibitor, partial curve, poor fit]
CN=C1SC(CC(=O)Nc2ccc(F)cc2F)C(=O)N1/N=C/c1ccc(OC(F)F)c(OC)c1 (stereo not drawn)	inactive
COC(=O)Cc1ccc(NC(=S)N2CCN(c3cccc(O)c3)CC2)cc1	inactive
Cn1c(=O)n(C)c2cc(S(=O)(=O)Nc3cc(Cl)ccc3O)ccc21	inactive
CCc1ccc(C2(O)CC(C(F)(F)F)=NN2C(=O)Cc2ccc([N+](=O)[O-])cc2)cc1 (stereo not drawn)	inconclusive: 398 µM [inhibitor, partial curve, poor fit]
CCCSc1ccc([C@H]2N[C@@](Cc3ccccc3)(C(=O)OC)[C@H]3C(=O)N(C)C(=O)[C@@H]23)cc1	inconclusive: 89.1 µM [inhibitor, partial curve, poor fit]
Cc1ccc(N=C2NC(=O)/C(=C/c3cn(C)c4ccccc34)S2)cc1C	inconclusive: 126 µM [inhibitor, partial curve, poor fit]
CCOc1ccc(NC(=O)CN(c2ccc(OCC)cc2)S(=O)(=O)c2c(C)[nH]c(=O)[nH]c2=O)cc1	inactive
COc1ccc(N(CC(=O)N/N=C/c2cc(Br)c(C)o2)S(=O)(=O)c2ccc(NC(C)=O)cc2)cc1	inconclusive: 100 µM [inhibitor, partial curve, poor fit]
Cc1ccc(NC(=O)N2CCC(c3nc4c(nnn4Cc4cccc(Cl)c4)c(=O)[nH]3)CC2)cc1	inconclusive: 112 µM [inhibitor, partial curve]
Nc1nc(Nc2cccc(Cl)c2)nc(NCc2ccco2)c1[N+](=O)[O-]	inconclusive: 79.4 µM [inhibitor, single point]
O=C(CCN1C(=O)/C(=C/c2cccs2)SC1=S)N1CCCCC1	inconclusive: 79.4 µM [inhibitor, single point]
O=C(C1CC1)N1CCN(S(=O)(=O)c2ccc3c(c2)OCCO3)CC1	inactive
COc1ccc2nc(NC(=O)c3cccc(N4C(=O)CCC4=O)c3)sc2c1	inactive
Cc1ccc(Cl)cc1N1CCN(C(=O)C2CCN(S(=O)(=O)c3c(C)nn(C)c3C)CC2)CC1	inconclusive: 100 µM [inhibitor, partial curve, poor fit]
CCCNC(=O)c1ccc(N2CCC3(CC2)CC(c2ccccc2)=NO3)c(NC(=O)Cc2ccc(F)cc2)c1	inconclusive: 89.1 µM [inhibitor, partial curve, poor fit]
O=C(CCN1CCN(C(c2ccccc2)c2ccccc2)CC1)N/N=C/c1ccc(O)cc1O	inactive
Cc1c(C)c2c(OCC(=O)NCC(O)c3ccccc3)cc3c(c2oc1=O)CCC(C)(C)O3 (stereo not drawn)	inactive
COc1ccc(N2CCN(C(c3cc4cc(C)ccc4[nH]c3=O)c3nnnn3Cc3ccccc3)CC2)cc1 (stereo not drawn)	inconclusive: 112 µM [inhibitor, partial curve, poor fit]
COC(=O)c1cc(NC(=O)c2cc(-c3ccc(Cl)cc3)oc2C(F)(F)F)ccc1N1CCOCC1	inconclusive: 89.1 µM [inhibitor, partial curve, poor fit]
COc1ccccc1-[n+]1c(C)cc(/C=C2\Sc3ccccc3N2C)cc1C	inconclusive: 112 µM [inhibitor, partial curve, poor fit]
